In patent US6803203B1, “DNA-PK assay” (Brookhaven Science Associates, priority 1993, dated 2004):
Not every detail of the peptide structures is certain; ends, links or a residue may be inferred. Some results were stated once for a whole list of compounds, not compound by compound. Residues, ends and D or L forms follow the SMILES beside them.

Assays:
DNA-PK [1] = assay: Peptide phosphorylation by extracts of Sf9 cells; assay type: biochemical, Spodoptera fragiperda
DNA-PK [2] = assay: DNA-PK activity in extracts of monkey cell lines; assay type: biochemical, African green monkey; conditions: for Specific Activity + DNA: + calf thymus DNA 10 μg/ml; for Specific Activity + DNA / Specific Activity − DNA: peptide 0.2 mM; for Specific Activity − DNA: no added DNA; for % of Total: share of total DNA-PK activity, + DNA; for Specific Activity Total: total activity in the two fractions divided by total protein
Protocol: (§1) Extracts of additional primate and rodent cells were tested for the presence of DNA-PK activity in accordance with the method of the present invention. The DNA-PK activity was determined using the methods described in Examples 1, 4 and 5 for seven human cell lines, two African green monkey kidney lines, and six rodent cell lines.
(§2) Extracts were prepared essentially as described in Example 10. Cells were lysed by freezing and thawing in hypotonic buffer; soluble (S10) “cytoplasmic” and insoluble in (P10) “nuclear” fractions were made by centrifuging lysates at 10,000×g for 10 min. The insoluble fraction was extracted with buffer containing 0.5 M KCl, which releases any DNA-PK that is bound to DNA. After centrifugation of the salt-washed pellet fraction, which removed the remaining insoluble material, the salt extract (P10S) was diluted and assayed as previously described.
(§3) Protein concentrations, determined using the Bio-Rad dye binding assay, were between 0.3 and 6 mg/ml. Extracts were incubated at 30° C. for 10 min with each peptide at 0.2 mM in the absence of added DNA (−DNA) or with 10 μg/ml calf thymus DNA (+DNA). After incubation the reaction mixtures were acidified with an equal volume of 30% acetic acid and spotted on to Whatman P-81 phosphocellulose paper (Whatman, Inc., Clifton, N.J.). The filters then were washed extensively in 15% acetic acid before the adsorbed radioactivity was quantitated as described in Example 5.
(§4) The amount of phosphate incorporated was calculated from the specific activity of the ATP. The rate of phosphate incorporation into the Ser-Gln-Glu peptide (Table 1) (SEQ ID NO: 11) in the presence of calf thymus DNA was approximately linear throughout the 10 minute reaction incubation period. Parallel assays were performed without added peptide, and these background values were subtracted to produce the activities that are shown in Table 3. Background values varied but, in all cases, were less than 0.2 nmol/min/mg (a few percent of the activity present in human cells). The specific activities were calculated from the total activity in the two fractions divided by the total protein in the two fractions. The percent of total DNA-PK activity in the S10 and P10S fractions was determined with peptide (SEQ ID NO: 11) in the presence of added calf thymus DNA. Extracts without substantial DNA-PK activity were examined for their ability to inhibit purified DNA-PK. Inhibitory activity was not detected.

casein kinase I = assay: Phosphate incorporation into peptides by casein kinase I; assay type: biochemical; conditions: same concentration (200 or 500 μM)
DNA-PK [3] = assay: DNA-PK activity in extracts of rat cells; assay type: biochemical; conditions: Rat REF; for Specific Activity + DNA: + calf thymus DNA 10 μg/ml; for Specific Activity + DNA / Specific Activity − DNA: peptide 0.2 mM; for Specific Activity − DNA: no added DNA; for % of Total: share of total DNA-PK activity, + DNA
Protocol: as §1, §2, §3, §4

DNA-PK [4] = target: T1, DNA-PK (Homo sapiens, UniProt P78527); assay: DNA-PK activity in extracts of human cell lines; assay type: biochemical; conditions: for Specific Activity + DNA: + calf thymus DNA 10 μg/ml; for Specific Activity + DNA / Specific Activity − DNA: peptide 0.2 mM; for Specific Activity − DNA: no added DNA; for % of Total: share of total DNA-PK activity, + DNA; for Specific Activity Total: total activity in the two fractions divided by total protein
T1 construct: DNA-PK was purified from HeLa cells; endogenous in cells; host or cells: HeLa S3 cells; the endogenous enzyme was purified in house by chromatography
Protocol: as §1, §2, §3, §4

Compound: CC(C)C[C@H](NC(=O)[C@H](CC(=O)O)NC(=O)[C@H](C)NC(=O)[C@H](Cc1ccccc1)NC(=O)[C@H](C)NC(=O)[C@H](CCC(=O)O)NC(=O)[C@H](CCC(N)=O)NC(=O)[C@H](CO)NC(=O)[C@H](CC(C)C)NC(=O)[C@@H]1CCCN1C(=O)[C@@H]1CCCN1C(=O)[C@@H](N)CCC(=O)O)C(=O)N[C@@H](Cc1c[nH]c2ccccc12)C(=O)N[C@@H](CCCCN)C(=O)N[C@@H](CCCCN)C(=O)O [SEQ ID NO: 11] (H-EPPLSQEAFADLWKK-OH)
- phosphorylation of the peptide by cell extracts (in words) (DNA-PK [1]): little, if any, phosphorylation
- Specific Activity + DNA (DNA-PK [2]; Monkey COS-1, P10S): 10.7 nmol PO4/min/mg protein
- Specific Activity − DNA (DNA-PK [2]; Monkey COS-1, P10S): 8.4 nmol PO4/min/mg protein
- % of Total (DNA-PK [2]; Monkey COS-1, P10S): 45.5%
- Specific Activity + DNA (DNA-PK [2]; Monkey COS-1, S10): 3.8 nmol PO4/min/mg protein
- Specific Activity − DNA (DNA-PK [2]; Monkey COS-1, S10): 0.85 nmol PO4/min/mg protein
- % of Total (DNA-PK [2]; Monkey COS-1, S10): 54.5%
- Specific Activity Total (DNA-PK [2]; Monkey COS-1): 5.4 nmol PO4/min/mg protein
- Specific Activity + DNA (DNA-PK [2]; Monkey CV-1, P10S): 18.1 nmol PO4/min/mg protein
- Specific Activity − DNA (DNA-PK [2]; Monkey CV-1, P10S): 6.3 nmol PO4/min/mg protein
- % of Total (DNA-PK [2]; Monkey CV-1, P10S): 58.0%
- Specific Activity + DNA (DNA-PK [2]; Monkey CV-1, S10): 5.6 nmol PO4/min/mg protein
- Specific Activity − DNA (DNA-PK [2]; Monkey CV-1, S10): 0.8 nmol PO4/min/mg protein
- % of Total (DNA-PK [2]; Monkey CV-1, S10): 42.0%
- Specific Activity Total (DNA-PK [2]; Monkey CV-1): 9.4 nmol PO4/min/mg protein
- incorporation of phosphate relative to the standard peptide of the kinase (casein kinase I): less than 5%
- Specific Activity + DNA (DNA-PK [3]; P10S): 0.50 nmol PO4/min/mg protein
- Specific Activity − DNA (DNA-PK [3]; P10S): 0.38 nmol PO4/min/mg protein
- % of Total (DNA-PK [3]; P10S): 92%
- Specific Activity + DNA (DNA-PK [3]; S10): 0.05 nmol PO4/min/mg protein
- Specific Activity − DNA (DNA-PK [3]; S10): 0.03 nmol PO4/min/mg protein
- % of Total (DNA-PK [3]; S10): 8%
- Specific Activity Total (DNA-PK [3]; total activity in the two fractions divided by total protein): 0.3 nmol PO4/min/mg protein
- Specific Activity + DNA (DNA-PK [4]; Human 293-S, P10S): 16.3 nmol PO4/min/mg protein
- Specific Activity − DNA (DNA-PK [4]; Human 293-S, P10S): 0.4 nmol PO4/min/mg protein
- % of Total (DNA-PK [4]; Human 293-S, P10S): 64.5%
- Specific Activity + DNA (DNA-PK [4]; Human 293-S, S10): 3.1 nmol PO4/min/mg protein
- Specific Activity − DNA (DNA-PK [4]; Human 293-S, S10): 0.3 nmol PO4/min/mg protein
- % of Total (DNA-PK [4]; Human 293-S, S10): 34.5%
- Specific Activity Total (DNA-PK [4]; Human 293-S): 6.4 nmol PO4/min/mg protein
- Specific Activity + DNA (DNA-PK [4]; Human A549, P10S): 31.1 nmol PO4/min/mg protein
- Specific Activity − DNA (DNA-PK [4]; Human A549, P10S): 0.9 nmol PO4/min/mg protein
- % of Total (DNA-PK [4]; Human A549, P10S): 71.4%
- Specific Activity + DNA (DNA-PK [4]; Human A549, S10): 7.5 nmol PO4/min/mg protein
- Specific Activity − DNA (DNA-PK [4]; Human A549, S10): 0.1 nmol PO4/min/mg protein
- % of Total (DNA-PK [4]; Human A549, S10): 28.6%
- Specific Activity Total (DNA-PK [4]; Human A549): 16.4 nmol PO4/min/mg protein
- Specific Activity + DNA (DNA-PK [4]; Human HPB-ALL, P10S): 22.1 nmol PO4/min/mg protein
- Specific Activity − DNA (DNA-PK [4]; Human HPB-ALL, P10S): 14.7 nmol PO4/min/mg protein
- % of Total (DNA-PK [4]; Human HPB-ALL, P10S): 71.5%
- Specific Activity + DNA (DNA-PK [4]; Human HPB-ALL, S10): 4.5 nmol PO4/min/mg protein
- Specific Activity − DNA (DNA-PK [4]; Human HPB-ALL, S10): 0.05 nmol PO4/min/mg protein
- % of Total (DNA-PK [4]; Human HPB-ALL, S10): 28.5%
- Specific Activity Total (DNA-PK [4]; Human HPB-ALL): 10.4 nmol PO4/min/mg protein
- Specific Activity + DNA (DNA-PK [4]; Human HeLa-JW, P10S): 24.9 nmol PO4/min/mg protein
- Specific Activity − DNA (DNA-PK [4]; Human HeLa-JW, P10S): 5.6 nmol PO4/min/mg protein
- % of Total (DNA-PK [4]; Human HeLa-JW, P10S): 27.5%
- Specific Activity + DNA (DNA-PK [4]; Human HeLa-JW, S10): 11.0 nmol PO4/min/mg protein
- Specific Activity − DNA (DNA-PK [4]; Human HeLa-JW, S10): 0.26 nmol PO4/min/mg protein
- % of Total (DNA-PK [4]; Human HeLa-JW, S10): 72.5%
- Specific Activity Total (DNA-PK [4]; Human HeLa-JW): 14.9 nmol PO4/min/mg protein
- Specific Activity + DNA (DNA-PK [4]; Human MRC 5, P10S): 3.1 nmol PO4/min/mg protein
- Specific Activity − DNA (DNA-PK [4]; Human MRC 5, P10S): 1.02 nmol PO4/min/mg protein
- % of Total (DNA-PK [4]; Human MRC 5, P10S): 2.1%
- Specific Activity + DNA (DNA-PK [4]; Human MRC 5, S10): 13.6 nmol PO4/min/mg protein
- Specific Activity − DNA (DNA-PK [4]; Human MRC 5, S10): 0.01 nmol PO4/min/mg protein
- % of Total (DNA-PK [4]; Human MRC 5, S10): 97.9%
- Specific Activity Total (DNA-PK [4]; Human MRC 5): 15.1 nmol PO4/min/mg protein
- Specific Activity + DNA (DNA-PK [4]; Human Raji, P10S): 13.5 nmol PO4/min/mg protein
- Specific Activity − DNA (DNA-PK [4]; Human Raji, P10S): 15.5 nmol PO4/min/mg protein
- % of Total (DNA-PK [4]; Human Raji, P10S): 52.1%
- Specific Activity + DNA (DNA-PK [4]; Human Raji, S10): 3.8 nmol PO4/min/mg protein
- Specific Activity − DNA (DNA-PK [4]; Human Raji, S10): 0.6 nmol PO4/min/mg protein
- % of Total (DNA-PK [4]; Human Raji, S10): 47.9%
- Specific Activity Total (DNA-PK [4]; Human Raji): 6.0 nmol PO4/min/mg protein
- Specific Activity + DNA (DNA-PK [4]; Human T98G, P10S): 12.9 nmol PO4/min/mg protein
- Specific Activity − DNA (DNA-PK [4]; Human T98G, P10S): 1.0 nmol PO4/min/mg protein
- % of Total (DNA-PK [4]; Human T98G, P10S): 39.4%
- Specific Activity + DNA (DNA-PK [4]; Human T98G, S10): 6.46 nmol PO4/min/mg protein
- Specific Activity − DNA (DNA-PK [4]; Human T98G, S10): 0.06 nmol PO4/min/mg protein
- % of Total (DNA-PK [4]; Human T98G, S10): 60.6%
- Specific Activity Total (DNA-PK [4]; Human T98G): 7.4 nmol PO4/min/mg protein
